This note sets out measurements from ChEMBL document CHEMBL4888484, “Replenishing the malaria drug discovery pipeline: Screening and hit evaluation of the MMV Hit Generation Library 1 (HGL1) against asexual blood stage Plasmodium falciparum ,using a nano luciferase reporter read-out” (2022).

In all, about 150,000 compounds went through this assay and about 540 (0.36%) showed an effect of 50% or more. Some of the results follow.

In this assay the test system is Plasmodium falciparum. In words: Primary screen in NF54 nanoGlo assay, in single point, at 2uM, 72h; a lower Z score goes with more inhibition. It counts as functional, Erythrocyte. Particulars: timepoint 72 hour.
Turning to `Cc1n[nH]c(C)c1S(=O)(=O)N1CCCN(c2nc(C(F)(F)F)nc3ccccc23)CC1`, the “% Inhibition” value is recorded as -7% and the Z score is on record as 0.93.

As for `Cn1nc(C(C)(C)C)cc1C(=O)N1CCCCC2CCCCC21` (centres undefined), the “% Inhibition” value is on record as -16% and the Z score is on record as 2.19.

Take `Cn1cnc2cc(C(=O)NCCOCc3ccc(Cl)cc3)ccc2c1=O`: the “% Inhibition” value is recorded as 3% and the Z score is -0.46.

With `Cc1c(CC(=O)NC[C@H]2CCOC2)c2c(n1Cc1ccccc1)CCCC2=O`, the “% Inhibition” value is on record as -16% and the Z score is 1.58.

With `CCCn1nc(C)nc1-c1ccc(-n2cccn2)cc1`, the “% Inhibition” value was -2% and the Z score turned out to be 0.34.

Turning to `NC(=O)N1CC[C@H](NC(=O)C#Cc2ccc(C(F)(F)F)cc2)C1`, the “% Inhibition” value worked out at 23% and the Z score was -2.34.

On to `c1ccc(Cn2ccnc2CCNc2nccn3cnnc23)cc1`, for which the “% Inhibition” value is -1% and the Z score is listed as 0.08.

Take `COC(=O)Cn1cc(S(=O)(=O)N2CCCC2)cc1C(=O)OC`: the “% Inhibition” value is on record as 14% and the Z score is on record as -1.6.

Turning to `O=C(NCc1nc(CO)cs1)c1ccc(O[C@H]2CC2(F)F)cc1`, the “% Inhibition” value is 1% and the Z score was -0.21.

With `COc1ccccc1-c1onc(C)c1C(=O)NCc1cccc(Cl)c1`, the “% Inhibition” value is -13% and the Z score came out at 1.76.

In the case of `CNC(=O)Nc1ccc2nc3n(c(=O)c2c1)CCCC3`, the “% Inhibition” value was 6% and the Z score is -0.71.

Take `CC(C)n1ncc(C(=O)N2CCC(C)(CO)CC2)c1C(F)(F)F`: the “% Inhibition” value was determined as 4% and the Z score is given as -0.5.

In the case of `Cc1cc(C)n(-c2ccc(F)cc2CN2CCN(Cc3ccccc3)[C@@H](CCO)C2)n1`, the “% Inhibition” value is given as -4% and the Z score was 0.72.

For `Cc1cc(C)cc(NC(=O)N[C@@H]2CNC(=O)C2)c1`, the “% Inhibition” value is on record as 0% and the Z score is reported as -0.01.

As for `CCN(C(=O)C1CCCCC1)c1ccccc1C`, the “% Inhibition” value is reported as -6% and the Z score is given as 1.06.

Take `Cc1ccc(CN2CCN(C(=O)[C@H]3CCCN(S(C)(=O)=O)CCC(=O)NCC3)CC2)cc1`: the “% Inhibition” value is given as -15% and the Z score was found to be 1.99.

As to `COc1ccc(C)cc1-n1c(-c2ccc(O)cc2)n[nH]c1=O`, the “% Inhibition” value worked out at 0% and the Z score was -0.03.

In the case of `CC(=O)Nc1cccc(Nc2c(C(=O)N3CCCCCC3)cnc3nc(C)ccc23)c1`, the “% Inhibition” value is reported as -13% and the Z score came out at 1.96.

For the compound `CC(C)[C@@H]1NC(=O)[C@@H](Cc2ccc(O)cc2)NC1=O`, the “% Inhibition” value was -19% and the Z score is on record as 2.03.

As for `N#Cc1ccc(S(=O)(=O)N2CCCCO2)o1`, the “% Inhibition” value is given as 2% and the Z score was -0.2.

For the compound `CCC(C)NC(=O)C1CCC(c2ccccc2)N(C(=O)NCc2ccccc2)C1` (centres undefined), the “% Inhibition” value is -7% and the Z score amounted to 0.74.

In the case of `C=C(C)CN1CCN(Cc2nc(C)c[nH]2)CC1`, the “% Inhibition” value is recorded as -3% and the Z score worked out at 0.64.

`CN1CCN(C[C@@H]2CN(Cc3nc(-c4ccccc4)no3)C[C@@H]2CO)CC1`: the “% Inhibition” value is given as -16% and the Z score is 3.29.

In the case of `CCCS(=O)(=O)NC[C@H](OC)c1ccccc1OC`, the “% Inhibition” value was determined as 11% and the Z score is given as -1.36.

As for `COc1cc(OC)c(N2C[C@@H](C(=O)NOCc3ccccc3)CC2=O)cc1Cl`, the “% Inhibition” value is recorded as -12% and the Z score is given as 1.56.

As for `Cc1cccnc1C[C@H](C)NC(=O)Cn1ccnc1C`, the “% Inhibition” value is given as -12% and the Z score is recorded as 2.08.

Regarding `CC[C@@](C)(C#N)NC(=O)c1cc(Cl)ccc1F`, the “% Inhibition” value is -7% and the Z score is on record as 1.27.

For the compound `O=C(Nc1ccccc1N1CCCC1=O)c1ccc(S(=O)(=O)N2CCOCC2)cc1`, the “% Inhibition” value is -1% and the Z score stood at 0.12.

Consider `CN(C(=O)c1ccccc1OCC(N)=O)[C@H]1CCCN(Cc2ccccc2)C1`, for which the “% Inhibition” value was -12% and the Z score was 1.66.

Take `CCS(=O)(=O)C1CN(c2ncnc3ccsc23)C1`: the “% Inhibition” value is -1% and the Z score was 0.11.

`COC(=O)Nc1ncc(CN2CCCCC2)s1`: the “% Inhibition” value is listed as -6% and the Z score is recorded as 0.65.

With `CCn1nccc1C(=O)Nc1ccc2c(c1)C(=O)N(C)C2=O`, the “% Inhibition” value is -4% and the Z score was found to be 0.63.

With `O=C(CCC1=Nc2cc(C(F)(F)F)ccc2S(=O)(=O)N1)NCCc1ccc(Cl)cc1`, the “% Inhibition” value was found to be 32% and the Z score was -3.59.

For the compound `COc1cccc(CN2CCCC[C@H]2c2ncc[nH]2)c1F`, the “% Inhibition” value is listed as -15% and the Z score is 1.36.

As to `CC1(C)CCC(S(=O)(=O)Cc2coc(-c3cccs3)n2)CC1`, the “% Inhibition” value is 1% and the Z score is reported as -0.23.

`Cc1nc(Cn2cccc2C(=O)Nc2cc(Cl)ccc2C)no1`: the “% Inhibition” value came to 7% and the Z score was -1.15.

As for `Cc1nc2ccc(N(C)C(=O)CNC(=O)c3ccsc3)cc2s1`, the “% Inhibition” value is listed as 1% and the Z score is listed as -0.15.

Take `CC(=O)c1sc(Cc2nc(O)cs2)nc1C`: the “% Inhibition” value was -8% and the Z score is given as 1.09.

In the case of `Cc1[nH]ncc1C(=O)N1CCOc2ccccc2[C@@H]1CO`, the “% Inhibition” value is -12% and the Z score is 1.34.

Take `CC(C)CC[C@@H](CCNCCN(C)C)c1ccc(Cl)cc1`: the “% Inhibition” value was determined as 90% and the Z score was -10.16.

Regarding `O=C(c1ccc(NCC2(CO)CCC2)nc1)N1CCC(N2CCOCC2)CC1`, the “% Inhibition” value is on record as -12% and the Z score was found to be 2.13.

Turning to `CCN(CC)[C@H](CNC(=O)COCc1ccc(OC)cc1)Cc1ccccc1`, the “% Inhibition” value is reported as 2% and the Z score is on record as -0.23.
